Data reported in PubChem BioAssay AID686979 (National Center for Advancing Translational Sciences (NCATS), 2013).
Where “and” joins values, the source holds several entries; their conditions need not be identical. Identical values can stand only once. The whole screen tested about 420,000 compounds, of which about 50,000 (12%) were called active. The inconclusive results got no clear call from the source; some entries with a clear call stand among them for comparison. Calls come from the whole dose curve; as a rule, active = well fitted inhibition curve with a large enough effect; inconclusive = small, poorly fitted or top-dose-only effect; inactive = flat fitted curve, though single readings scatter. Potencies of inconclusive entries are doubtful fits and often do not repeat.
% is set by controls: 0 for no effect and ±100 for the full control effect; potency is the fitted concentration of half-maximal effect; tags give direction and shape of the fitted curve.

Assay: qHTS for Inhibitors of human tyrosyl-DNA phosphodiesterase 1 (TDP1): qHTS in cells in presence of CPT; note: nearly all actives have a fitted effect of over 55% in size
Conditions: chicken DT40 Tdp1-/-;hTDP1 cells + 20 nM CPT, ATP luminescence, 48 h; activity change, negative = growth inhibition: at 46.2 µM (top of the series) unless noted
How it was run: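 Chicken DT40 Tdp1-/- cells complemented with human TDP1, 400 cells/well, exposed to compounds plus 20 nM camptothecin for at least 48 h at 37 C; viability read as ATP content by CellTiter-Glo luminescence.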
With CC(=O)c1c(O)cc2c3c1OC(C)(C)C1CCC(C)(CC31)O2 (stereo not drawn) the Potency was active: 20.6 µM. For CCC1([N+](=O)[O-])COP(N)(=O)OC1 (stereo not drawn), the Potency was inconclusive: 23.1 µM [inhibitor, single point]. With O=c1c2ccccc2nc(SCC2CCCCO2)n1-c1ccccc1 (stereo not drawn) the Potency was inconclusive: 20.6 µM [inhibitor, single point]. In the case of CCOc1ccccc1N(CC(=O)NCCc1ccc(OC)cc1)S(=O)(=O)c1ccc(C)cc1, the Potency is reported as active: 10.3 µM. For CC(=O)O[C@H]1C[C@H](O[C@H]2[C@@H](O)C[C@H](O[C@H]3[C@@H](O)C[C@H](O[C@H]4CC[C@@]5(C)[C@H](CC[C@@H]6[C@@H]5C[C@@H](O)[C@]5(C)[C@@H](C7=CC(=O)OC7)CC[C@]65O)C4)O[C@@H]3C)O[C@@H]2C)O[C@H](C)[C@H]1O[C@@H]1O[C@H](CO)[C@@H](O)[C@H](O)[C@H]1O, the Potency was active: 0.376 µM. In the case of Cn1ncnc2c(=O)n(C)c(=O)nc1-2, the Potency is reported as active: 0.206 µM. With O=C1CN=C(c2ccccc2)c2cc(Cl)ccc2N1CC1CC1 the Potency was inconclusive: 33.5 µM [inhibitor, single point]. In the case of N[C@H](CCCCCP(=O)(O)O)C(=O)O, the Potency is reported as “inactive”. In the case of COc1cccc(C2SCC(=O)Nc3c2c(C)nn3-c2ccc(C)c(Cl)c2)c1OC (stereo not drawn), the Potency is reported as active: 20.6 µM. In the case of CC(C)(C)C(=O)N1Cc2cc(N3CCOCC3)ccc2-n2nncc2C1, the Potency is reported as inconclusive: 18.4 µM [inhibitor, single point]. In the case of Cc1ccc2c(c1)CC1(CN2C)C(=O)NC(=O)N(CCC2=CCCCC2)C1=O (stereo not drawn), the Potency is reported as inconclusive: 6.51 µM [inhibitor, partial curve, poor fit]. With CCC(=O)c1ccc(OCC(=O)N2CCN(CC(=O)Nc3ccccc3C(F)(F)F)CC2)cc1 the Potency was inconclusive: 29.1 µM [inhibitor, single point]. For CN(C)C1(c2nnnn2CCOC(=O)Nc2ccc(Cl)cc2)CCCCC1, the Potency was inconclusive: 25.9 µM [inhibitor, single point]. With N=C1C(c2ccccc2)=C(O)CN1Cc1ccco1 the “activity change, negative = growth inhibition” value was inactive: -3.67%. With c1cc2c(cc1[C@H]1OCC3C1CO[C@@H]3c1ccc3c(c1)OCO3)OCO2 (stereo partly drawn) the Potency was inconclusive: 29.1 µM [inhibitor, single point]. With O=C(NCCc1ccccc1)c1ccc(CSc2nc3cccnc3n2Cc2ccc(F)cc2)cc1 the Potency was inconclusive: 25.9 µM [inhibitor, single point]. For COc1ccc(N2C(=O)/C(=C/c3ccc(C)o3)C(=O)NC2=S)cc1, the Potency was active: 14.6 µM. In the case of CCOP(=S)(OCC)N1CC1, the “activity change, negative = growth inhibition” value is reported as inactive: 14.6%. In the case of COC(=O)COc1cc(C)cc2oc(=O)c3c(c12)CCCC3, the “activity change, negative = growth inhibition” value is reported as inactive: -6.26%. For O=C(Cc1ccccc1)N1CCN(Cc2cccc(Br)c2)CC1, the Potency was inconclusive: 13 µM [inhibitor, partial curve]. With CCN(CC)c1ccc(CNCCc2ccccc2F)cc1 the Potency was inconclusive: 20.6 µM [inhibitor, single point]. In the case of CCCN(CCC)C1CCc2ccc(O)cc2C1 (stereo not drawn), the Potency is reported as “inactive”. For O=Cc1c(C(=O)O)n(Cc2ccc(F)cc2Cl)c2ccccc12, the “activity change, negative = growth inhibition” value was inactive: -3.38%. In the case of Cc1cccc(CC(c2cccc(C)c2)N(C)C)c1 (stereo not drawn), the “activity change, negative = growth inhibition” value is reported as inactive: -23.6%. In the case of CC(C)N1CC=C(c2c[nH]c3ccccc23)CC1, the Potency is reported as active: 7.31 µM. With OC(CNC1CCCCC1)c1ccccc1 (stereo not drawn) the “activity change, negative = growth inhibition” value was inactive: -3.92%. In the case of Cc1cc2oc(=O)cc(-c3ccccc3)c2c(C)c1-c1ccc(CO)cc1, the Potency is reported as active: 18.4 µM. For COC(=O)C1=C(c2ccccc2OCc2ccccc2)C[C@@H]2CC[C@H]1N2C(=O)NCc1ccc([N+](=O)[O-])cc1, the Potency was active: 23.1 µM. For Cc1cc(NC(=O)CCC(=O)N2CCC3(CC2)OCCO3)no1, the “activity change, negative = growth inhibition” value was inactive: -7.39%. With CCOP(=O)(OCC)c1nc(-c2ccc(F)cc2)oc1NCc1ccccc1 the Potency was inconclusive: 0.92 µM [inhibitor, full curve, poor fit]. For Cc1ccccc1OCC(=O)N1CCN(CCc2ccccn2)CC1, the “activity change, negative = growth inhibition” value was inactive: 2.56%. In the case of CC12CN3CN(C1)CC(C)(C3)C2=NO, the “activity change, negative = growth inhibition” value is reported as inactive: 12.6%. With OCC(O)Cc1ccc2c(c1)OCO2 (stereo not drawn) the “activity change, negative = growth inhibition” value was inactive: -1.84%. With COC(=O)C1=C(c2cccc(C#N)c2)C[C@@H]2CC[C@H]1N2C(=O)NCCO the “activity change, negative = growth inhibition” value was inactive: -1.72%. For COC(=O)C1=C(c2ccccc2OCc2ccccc2)C[C@@H]2CC[C@H]1N2C(=O)NCc1ccc(Br)cc1, the Potency was inconclusive: 29.1 µM [inhibitor, single point]. For CN[C@H](C)CCC=C(C)C, the Potency was inconclusive: 17.8 µM [inhibitor, single point]. With CCn1cc(C(=O)O)c(=O)c2ccc(C)nc21 the Potency was inconclusive: 2.31 µM [inhibitor, partial curve, poor fit]. For CCCCN1CC(COCc2ccccc2)Oc2cccc(Oc3ccc(C(C)C)cc3)c2S1(=O)=O (stereo not drawn), the Potency was active: 10.3 µM. With O=C(O)CCC(=O)OC[C@@H](NC(=O)C(Cl)Cl)[C@H](O)c1ccc([N+](=O)[O-])cc1 the Potency was inconclusive: 33.5 µM [inhibitor, single point]. With COP(=S)(OC)SCN1C(=O)c2ccccc2C1=O the Potency was “inactive and inconclusive: 33.5 µM [inhibitor, single point]”. With C[n+]1c2ccccc2nc2ccc(NCCO)cc21 the Potency was active: 18.4 µM. With Cc1cc(OCC(=O)N2CCC(C(=O)O)(c3ccccc3)CC2)c2c(C)c(C)c(=O)oc2c1 the “activity change, negative = growth inhibition” value was inactive: -1.29%. For Cc1cccc(OP(=O)(Oc2cccc(C)c2)OC(c2ccccc2)C(F)(F)F)c1 (stereo not drawn), the Potency was inconclusive: 29.1 µM [inhibitor, single point]. With O=S1(=O)N(Cc2ccccc2Cl)CCCN1Cc1ccccc1Cl the Potency was active: 16.4 µM. In the case of C/C(=C\c1ccc(N(C)C)cc1)[N+](=O)[O-], the Potency is reported as active: 4.11 µM. With O=C1NC(=O)C(=Cc2cn(CCOc3ccc4c(c3)OCO4)c3ccccc23)C(=O)N1 the Potency was inconclusive: 29.1 µM [inhibitor, single point]. For COc1ccc(C(=O)C2CCCN(CCc3ccccc3)C2)cc1OC (stereo not drawn), the Potency was inconclusive: 29.1 µM [inhibitor, partial curve, poor fit]. With Cc1ccc(-c2nc(N3CCOCC3)s[n+]2-c2ccccc2)cc1 the Potency was inconclusive: 11.6 µM [inhibitor, partial curve, poor fit]. In the case of Cc1ccc(N(C)C(=O)Oc2cccc3ccc(C)nc23)cc1, the Potency is reported as inconclusive: 29.1 µM [inhibitor, single point]. In the case of COc1cc(/C=C/c2nc3ccccc3c(=O)n2-c2ccccc2O)ccc1O, the Potency is reported as inconclusive: 23.1 µM [inhibitor, single point]. In the case of COC(=O)C1=C(c2cccc(OC)c2OC)C[C@@H]2CC[C@H]1N2C(=O)NC1CC1, the “activity change, negative = growth inhibition” value is reported as inactive: 4.15%. For CC[C@H](C)[C@H]1O[C@]2(C=C[C@@H]1C)C[C@@H]1C[C@@H](C/C=C(\C)[C@@H](O[C@H]3C[C@H](OC)[C@@H](O[C@H]4C[C@H](OC)[C@@H](O)[C@H](C)O4)[C@H](C)O3)[C@@H](C)/C=C/C=C3\CO[C@@H]4[C@H](O)C(C)=C[C@@H](C(=O)O1)[C@]34O)O2, the Potency was inconclusive: 18.4 µM [inhibitor, single point]. With CC1=C(O)C(=O)C=C2C1=CC=C1[C@]2(C)CC[C@@]2(C)C3C[C@](C)(C(=O)O)CC[C@@]3(C)CC[C@@]12C (stereo partly drawn) the Potency was active: 1.03 µM. In the case of CCCn1ncc(CN2CCCC(C(=O)c3cccc(OC)c3)C2)c1C (stereo not drawn), the Potency is reported as inconclusive: 14.6 µM [inhibitor, partial curve]. In the case of Cc1cc(C(=O)OCC(=O)Nc2ccccc2F)c(C)n1C1CC1, the Potency is reported as inconclusive: 16.4 µM [inhibitor, single point]. In the case of C[C@H]1CC[C@@H]2[C@@H](C)[C@H]3[C@H](C[C@H]4[C@@H]5CC=C6C[C@@H](O[C@@H]7O[C@H](CO)[C@H](O)[C@H](O[C@@H]8O[C@H](CO)[C@@H](O)[C@H](O)[C@H]8O)[C@H]7O[C@@H]7O[C@@H](C)[C@H](O)[C@@H](O)[C@H]7O)CC[C@]6(C)[C@H]5CC[C@]34C)N2C1, the Potency is reported as active: 14.6 µM. For c1ccc(CNCCc2c[nH]c3ccccc23)cc1, the “activity change, negative = growth inhibition” value was inactive: -23.8%. For COc1ccc(NC(=O)c2ccccc2SCc2ccccc2)cc1, the Potency was active: 5.17 µM. With CC1CN=C(Nc2ccc(N(C)C)cc2)S1 (stereo not drawn) the Potency was inconclusive: 11.6 µM [inhibitor, partial curve]. With COCCCn1c(N)c(C(=O)NCc2ccco2)c2nc3ccccc3nc21 the Potency was inconclusive: 13 µM [inhibitor, partial curve]. With Cc1ccc(NC(=O)CSc2nnc([C@@H](N)Cc3c[nH]c4ccccc34)o2)c(C)c1 the “activity change, negative = growth inhibition” value was inactive: -28.5%. With CCC(C)C(=O)OC1C(O)C2C(CN3CC(C)CCC3[C@]2(C)O)C2C[C@]34O[C@@]5(O)C(OC(=O)C(C)(O)CC)CCC3(C)C5C(OC(C)=O)C(OC(C)=O)C4[C@@]21O (stereo partly drawn) the “activity change, negative = growth inhibition” value was inactive: 0.781%. For CCCC(=O)OC(C(Cl)(Cl)Cl)P(=O)(OC)OC (stereo not drawn), the Potency was inconclusive: 0.119 µM [inhibitor, full curve, poor fit]. In the case of COc1ccc(N2C(=O)NC(=O)/C(=C/c3ccc([N+](=O)[O-])s3)C2=O)cc1, the Potency is reported as active: 14.6 µM. With CCC(N)C(O)c1ccc(O)c(O)c1 (stereo not drawn) the Potency was inconclusive: 18.4 µM [inhibitor, single point]. For CC(C)(C)c1ccc(O)c(CN2CCN(c3ccccc3)CC2)c1, the Potency was inconclusive: 20.6 µM [inhibitor, partial curve]. In the case of S=C(NCCc1ccccc1)N1Cc2ccc(Br)cc2-n2nncc2C1, the Potency is reported as inconclusive: 29.1 µM [inhibitor, single point]. In the case of CCn1c(O)c(C=Nc2ccc(S(N)(=O)=O)cc2)c(=O)n(CC)c1=S, the Potency is reported as inconclusive: 25.9 µM [inhibitor, single point].
